{"source": "patent US20090074782A1", "about": "(ONCOMED PHARMACEUTICALS, published 2009)", "binders": {"B1": {"name": "RSPO2-Fc (Fc fusion)", "chain": "QGNRWRRSKRASYVSNPICKGCLSCSKDNGCSRCQQKLFFFLRREGMRQYGECLHSCPSGYYGHRAPDMNRCARCRIENCDSCFSKDFCTKCKVGFYLHRGRCFDECPDGFAPLEETMECVEGCEVGHWSEWGTCSRNNRTCGFKWGLETRTRQIVKKPVKDTILCPTIAESRRCKMTMRHCPGGKRTPKAKEKRNKKKKRKLIERAQEQHSVFLATDRANQGRA[… human IgG1 Fc …]"}, "B2": {"name": "RSPO3-Fc (Fc fusion)", "chain": "QNASRGRRQRRMHPNVSQGCQGGCATCSDYNGCLSCKPRLFFALERIGMKQIGVCLSSCPSGYYGTRYPDINKCTKCKADCDTCFNKNFCTKCKSGFYLHLGKCLDNCPEGLEANNHTMECVSIVHCEVSEWNPWSPCTKKGKTCGFKRGTETRVREIIQHPSAKGNLCPPTNETRKCTVQRKKCQKGERGKKGRERKRKKPNKGESKEAIPDSKSLESSKEIPEQRENKQQQKKRKVQDKQKSVSVSTVHGRA[… human IgG1 Fc …]"}, "B3": {"name": "RSPO4-Fc (Fc fusion)", "chain": "LNRRKKQVGTGLGGNCTGCIICSEENGCSTCQQRLFLFIRREGIRQYGKCLHDCPPGYFGIRGQEVNRCKKCGATCESCFSQDFCIRCKRQFYLYKGKCLPTCPPGTLAHQNTRECQGECELGPWGGWSPCTHNGKTCGSAWGLESRVREAGRAGHEEAATCQVLSESRKCPIQRPCPGERSPGQKKGRKDRRPRKDRKLDRRLDVRPRQPGLQPGRA[… human IgG1 Fc …]"}, "B4": {"name": "RSPO1-Fc (Fc fusion)", "chain": "SRGIKGKRQRRISAEGSQACAKGCELCSEVNGCLKCSPKLFILLERNDIRQVGVCLPSCPPGYFDARNPDMNKCIKCKIEHCEACFSHNFCTKCKEGLYLHKGRCYPACPEGSSAANGTMECSSPAQCEMSEWSPWGPCSKKQQLCGFRRGSEERTRRVLHAPVGDHAACSDTKETRRCTVRRVPCPEGQKRRKGGQGRRENANRNLARKESKEAGAGSRRRKGQQQQQQQGTVGPLTSAGPAGRA[… human IgG1 Fc …]", "notes": "also called soluble RSPO1"}}, "key": {"[1]": {"biological_target": "T1, FLAG-LGR5-CD4™ (human, UniProt O75473 22-564)", "T1 construct": "domain: transmembrane domain; Transiently expressed on HEK 293 cells together with GFP; also called variant cell-surface LGR5 protein; cell-associated LGR5 construct; not shown: N-terminal FLAG tag; transmembrane domain of CD4", "T1 sequence": "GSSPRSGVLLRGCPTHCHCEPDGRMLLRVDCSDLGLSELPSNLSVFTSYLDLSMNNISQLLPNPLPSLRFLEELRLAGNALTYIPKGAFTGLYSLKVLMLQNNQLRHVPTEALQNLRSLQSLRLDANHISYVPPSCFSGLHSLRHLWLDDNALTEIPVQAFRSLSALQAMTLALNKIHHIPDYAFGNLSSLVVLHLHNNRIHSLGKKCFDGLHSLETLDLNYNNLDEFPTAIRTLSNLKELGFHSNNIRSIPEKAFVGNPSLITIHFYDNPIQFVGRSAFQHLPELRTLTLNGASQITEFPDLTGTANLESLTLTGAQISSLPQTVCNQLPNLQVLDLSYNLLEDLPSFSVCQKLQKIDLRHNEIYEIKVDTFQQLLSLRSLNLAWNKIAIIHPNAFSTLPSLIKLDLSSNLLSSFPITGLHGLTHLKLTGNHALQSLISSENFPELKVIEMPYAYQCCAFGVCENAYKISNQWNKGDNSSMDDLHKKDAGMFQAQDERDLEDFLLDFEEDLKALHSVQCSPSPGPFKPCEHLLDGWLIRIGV", "experiment": "FACS, RSPO2-Fc on HEK 293 cells transfected with FLAG-LGR5-CD4™ and GFP, with heparin", "experimental": "(§1) To determine whether other RSPO family members also were able to bind to LGR5 additional studies were performed examining the interaction of each RSPO family member with LGR5. HEK 293 cells were transiently transfected with FLAG-LGR5-CD4™ and GFP. After 48 hours, cells were suspended in ice cold PBS containing 2% FCS heparin and then incubated on ice in the presence of RSPO1-Fc, RSPO2-Fc, RSPO3-Fc, RSPO4-Fc, FZD8-Fc, as indicated (FIG. 7C) or a FLAG antibody as a positive control. Each RSPO family member interacted with the LGR5 transfected cells."}, "[2]": {"biological_target": "T1, FLAG-LGR5-CD4™", "experiment": "FACS, RSPO3-Fc on HEK 293 cells transfected with FLAG-LGR5-CD4™ and GFP, with heparin", "experimental": "as §1"}, "[3]": {"biological_target": "T1, FLAG-LGR5-CD4™", "experiment": "FACS, RSPO4-Fc on HEK 293 cells transfected with FLAG-LGR5-CD4™ and GFP, with heparin", "experimental": "as §1"}, "[4]": {"biological_target": "T1, FLAG-LGR5-CD4™", "experiment": "FACS (FIG. 7C), RSPO1-Fc on HEK 293 cells transfected with FLAG-LGR5-CD4™ and GFP, with heparin", "experimental": "as §1"}}}
{"binder": "B1", "values": [{"measurement": "binding result", "setting": "[1]", "result": "binds"}]}
{"binder": "B2", "values": [{"measurement": "binding result", "setting": "[2]", "result": "binds"}]}
{"binder": "B3", "values": [{"measurement": "binding result", "setting": "[3]", "result": "binds"}]}
{"binder": "B4", "values": [{"measurement": "binding result", "setting": "[4]", "result": "binds"}]}
